# Experimental data reported in the supplement of paper PMC11417369.
# Some of the results follow.
# Tested on: PF3D7_0420300 AP2 domain 1 (GST-tagged)
# Experiment: gcPBM binding intensity (ln(normalized median fluorescence intensity)); higher = stronger DNA binding
# Outline: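 For binding intensity, the highest Masliner-normalised natural-log median intensity across replicate spots of either probe orientation was taken. Protein bound to the array was stained with Alexa488 anti-GST antibody and scanned at 488 nm. The protein, GST-tagged P. falciparum DNA-binding domains from E. coli at about 25 μg on average, had been applied for 1 h to an Agilent 4 × 180k array of primer-extended double-stranded 36-bp intergenic genomic probes and negative controls.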
row,Sequence,gcPBM binding intensity (ln)
1,GCAACACAAAAAATTACACACAAAAAAAATATATTA [CACACA_site916],9.64
2,TTAAGGCATCAACATAGTACAATTTTTCTATAATAA [XGTACX_site1114],9
3,ATTTAATACAAATACACACACAAATAAATACAGATA [CACACA_site5956],10.2
4,TTTATAATTCTTACAACACACAATGTACTTTTATAT [CACACA_site8340],9.43
5,TTTATTTCCTTTTTGTGTACATATATATGTAATTCA [XGTACX_site1718],9.32
6,ATTCTACGCACGCGCACACACAACAAAAAAAAAAAA [CACACA_site3538],9.41
7,GTGATGGTACAATATACACACTTAAAAAAAAAAAAT [CACACA_site5360],9.26
8,CATGTGTGATAATGATGTACTATATTAAGCTAGTCC [XGTACX_site2690],9.29
9,TATATACATATATATTGTACTTATTTTTATAATGTC [XGTACX_site3453],9.27
10,TTTTTGTTAACAATGGGTACAAAAAAAAGGAAAATA [XGTACX_site7466],9.16
11,CCCAAAAAATATCATAGTACTCAACATGACTACTAT [XGTACX_site7838],9.16
12,AATTTTGTATAGGTATCACACATGAAATATATTATT [CACACA_site5526],9.35
13,AAATAAAATAATAAAACATGCAAAAATAATGATTTA [TGCATGCA_site415],9.49
14,ATAAAGATTAACAAAGTGCATTTATATATATAATCT [GTGCAC_site9407],9.25
15,ATAAAAGATATGTATATGTATATGTATATATATATA [TGCATGCA_negctrl_site214],9.2
16,TATAAATAAATAGATACACACATATTTATAAATACA [CACACA_site6219],9.56
17,GCTTAAGGTAAATATAAAATATAGTGTATACTTTAG [XGTACX_negctrl_site585],9.04
18,TTACGCTGCTATATAGTGCACATAATATATGACCTG,9.14
19,ACTTAGGAAATAAAACGTACATTAAATATATACATA [XGTACX_site2990],9.17
20,TTTTATTTATTATTATGTACACACTATATTAAAACA [XGTACX_site1265],9.27
21,TGAATAATCAATAGTACACACATATAAATATAAATA [CACACA_site7345],9.66
22,GTATGTATGTATGTATGTACTTATTAATCAGTAAAA [XGTACX_site3844],9.12
23,CAATATATTATATGGGTGCAAACCACATATAAATAA,9.11
24,TTAGGTATATATAAACGTACTCACAATATCATATAA [XGTACX_site8743],9.31
25,TATATATACTTTTATGTACACACCTATAATATGGGT [CACACA_site1759],9.35
